From publication PMC6919601, “Identification of Plasmodium dipeptidyl aminopeptidase allosteric inhibitors by high throughput screening” (PLoS ONE, 2019)
Screen size: about 110,000 compounds; about 230 (0.21%) showed an effect of 50% or more. Some of the results follow.

Molecular target: DPAP1 (Plasmodium falciparum, UniProt Q8IIJ9)
Assay: primary screen, percent inhibition; read by cleavage of a fluorogenic dipeptide substrate; higher = more effect of the substance
Set-up: species or system P. falciparum D10 trophozoite lysates; single well
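Further: 30 min substrate incubation versus DMSO and 10 µM JCP410 controls.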

Sequence of DPAP1 (Q8IIJ9 whole entry, looked up): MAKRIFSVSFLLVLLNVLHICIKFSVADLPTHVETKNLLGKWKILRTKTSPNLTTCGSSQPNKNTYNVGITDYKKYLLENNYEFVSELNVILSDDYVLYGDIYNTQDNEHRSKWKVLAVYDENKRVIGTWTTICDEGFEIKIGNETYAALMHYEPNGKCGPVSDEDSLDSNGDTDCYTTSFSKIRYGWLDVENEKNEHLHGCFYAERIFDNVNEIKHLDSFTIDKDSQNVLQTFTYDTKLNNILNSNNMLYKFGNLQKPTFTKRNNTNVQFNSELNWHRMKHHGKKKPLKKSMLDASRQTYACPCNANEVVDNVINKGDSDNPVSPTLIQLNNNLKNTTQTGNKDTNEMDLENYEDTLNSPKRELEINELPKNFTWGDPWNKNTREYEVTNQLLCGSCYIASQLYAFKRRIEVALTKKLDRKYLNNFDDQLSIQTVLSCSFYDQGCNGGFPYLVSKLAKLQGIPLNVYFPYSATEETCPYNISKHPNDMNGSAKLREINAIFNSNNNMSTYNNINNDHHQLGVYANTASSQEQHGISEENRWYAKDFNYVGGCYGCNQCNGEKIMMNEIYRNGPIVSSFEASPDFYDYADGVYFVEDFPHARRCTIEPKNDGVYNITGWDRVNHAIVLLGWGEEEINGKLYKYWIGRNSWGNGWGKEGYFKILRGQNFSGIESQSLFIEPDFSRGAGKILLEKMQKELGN

SMILES	% Inhibition @ 10 uM [%]
COc1ccc2c3c([nH]c2c1)C(C)(C(=O)O)NCC3 (stereo not drawn)	0.627
C/N=c1\c(NC(=O)c2ccccc2C)c(O)oc2ccccc12	-2.78
O=C1CN(S(=O)(=O)c2ccc(Cl)cc2)CC(=O)N1CCc1ccccc1	-3.52
Cc1cc(C)cc(NC(=O)CN2CCCCC2)c1	-6.25
Cc1ccc(C(=O)NC(C)c2ccc3c(c2)OCO3)cc1 (stereo not drawn)	0.709
O=C1NC(=S)NC(=O)C1=Cc1ccccc1OCCO	-6.17
CCOc1ccc(NS(=O)(=O)c2ccc(NC(=O)Nc3ccc(Cl)cc3)cc2)cc1	0.245
CCSc1nc(C)cc(COC)c1C#N	2.94
CCOc1ccc(C(=O)NCc2ccccc2)cc1	3.48
Cc1ccc(S(N)(=O)=O)cc1NC(=O)c1cccc(F)c1F	0.992
Clc1ccc(N2CCN(Cc3ccc(Cl)cc3Cl)CC2)cc1	4.04
Cn1cc(C(=O)NCCc2ccc(Cl)cc2)c2c3ccccc3n(C)c2c1=O	6.87
Cc1cc(OCC(=O)Nc2ccc(NC(=O)C(C)C)cc2)ccc1Cl	-6.22
O=C(Nc1nnc(N2CCCCCC2)s1)c1csc2c1CCCC2	-5.32
COc1ccc(S(=O)(=O)N2CCN(S(=O)(=O)c3ccc(OC)c(C)c3)CC2)cc1C	2.22
O=C1C2CCCN2C(c2ccc(Cl)cc2Cl)N1c1nccs1 (stereo not drawn)	-2.29
CC1(C)CC(=O)C2=C(C1)c1c(ccc3ncccc13)NC2c1ccc2c(c1)OCO2 (stereo not drawn)	9.33
O=C(/C=C/c1ccc(Cl)cc1)N(Cc1cccc(F)c1)C1CCS(=O)(=O)C1 (stereo not drawn)	1.82
O=C(NCCCc1ccccc1)c1csc2c1CCCCC2	0.277
Cc1ccnc(NC(=O)C(CC(C)C)N2Cc3ccccc3C2=O)c1 (stereo not drawn)	-1.58
O=c1c2nnn(-c3cccc(Cl)c3)c2ncn1Cc1ccccc1F	-5.79
CCOC(=O)c1c(NC(=O)C2Cc3ccc(C)cc3C(=O)O2)sc(C)c1C (stereo not drawn)	1.91
CN(C)C(=O)c1ccc(-c2nnc(NCc3ccccc3)c3ccccc23)cc1	-2.87
O=C1c2ccc(-c3ccc4c(c3)C(=O)N(c3ccccc3O)C4=O)cc2C(=O)N1c1ccccc1O	-5.36
COC(=O)c1c(NC(=O)C2CC2c2ccccc2)sc(C)c1C (stereo not drawn)	-2.87
CCCc1nnc(NC(=O)c2nc(SC)ncc2Cl)s1	2.19

SMILES	% Inhibition @ 10 uM [%]
N#CCNC(=O)[C@H](CC1CCC(=O)CC1)NC(=O)c1ccccc1	-3.49
Cc1c(Cl)cccc1-n1nc(C)c2c(C)cc(=O)n(CC(=O)NCc3ccc4c(c3)OCO4)c21	-4.36
COc1ccc(OC)c(N(CC(=O)NCC(C)C)S(C)(=O)=O)c1	0.909
COc1ccc(-c2cc(C)no2)cc1S(=O)(=O)N1CCCCCC1	-5.67
O=C(O)C1CCN(C(=O)c2cccs2)CC1	-6.65
COc1ccc(C2CC(C(F)(F)F)n3nc(C(=O)NCc4cnn(C)c4C)cc3N2)cc1OC (stereo not drawn)	-4.6
CCOC(=O)c1cc(C)sc1/N=C/C1C(=O)CC(C)(C)CC1=O	0.193
COc1ccccc1C(=O)Nc1cccc(C(=O)O)c1	-4.02
Cc1ccc2oc(=O)c3cnn(CC(=O)N4CCOCC4)c3c2c1	-0.0115
CCC(C)NC(=O)c1ccccc1NS(=O)(=O)c1ccccc1 (stereo not drawn)	0.727
CC1CCC(NCc2ccco2)CC1 (stereo not drawn)	-5.44
C=CCSc1nnc(NC(=O)c2nc(SCCC)ncc2Cl)s1	1.25
Cc1ccc(S(=O)(=O)NCc2cccnc2)cc1-c1nnc2c3ccccc3c(C)nn12	-3.64
O=C(Nc1cccnc1)C(Cc1ccccc1)N1Cc2ccccc2C1=O (stereo not drawn)	-1.86
CC(C)c1ccc(OCc2ccc(C(=O)O)cc2)cc1	-9.66
CCOC(=O)N1CCN(c2ccc(/C=C(\C#N)c3nc4ccccc4s3)o2)CC1	4.67
CC(=O)C1=C(O)C(=O)N(CCCN(C)C)C1c1ccc(Br)cc1 (stereo not drawn)	-5.19
C=CCn1cnc2c(cnn2-c2ccc(C)c(C)c2)c1=O	-0.0309
CCn1c(C(=O)N2CCC(C(=O)N3CCc4ccccc4C3)CC2)cc2sccc21	7.91
CCOc1ccccc1CN1CCN(c2ccc(OC)cc2)CC1	-1.77
Cc1cccc(N2CC(C(=O)Nc3ccc(Cl)c(Cl)c3)CC2=O)c1 (stereo not drawn)	2.44
COc1ccccc1CC(=O)Nc1nc2ccc(S(C)(=O)=O)cc2s1	0.146
O=C(NCCCc1ccccc1)c1ccc(CN2CC(=O)N3CCCCC3C2=O)cc1 (stereo not drawn)	-3.88
Cc1ccc(C(=O)Nc2ccc(S(N)(=O)=O)cc2)cc1C	-3.39
Cn1cnnc1SCC#CCO	0.0539
